{"source": "ChEMBL document CHEMBL4888484", "about": "“Replenishing the malaria drug discovery pipeline: Screening and hit evaluation of the MMV Hit Generation Library 1 (HGL1) against asexual blood stage Plasmodium falciparum ,using a nano luciferase reporter read-out” (2022)", "note": "The whole screen tested about 150,000 compounds, of which about 540 (0.36%) showed an effect of 50% or more. This is one part of the list.", "data": [{"system": "Plasmodium falciparum", "assay": "Primary screen in NF54 nanoGlo assay, in single point, at 2uM, 72h; a lower Z score goes with more inhibition", "type": "functional, Erythrocyte", "details": "timepoint 72 hour", "units": {"% Inhibition": "%"}, "values": [{"smiles": "CC(=O)N[C@@H](CC(=O)OCC(=O)Nc1cc(C(C)(C)C)nn1-c1ccccc1Cl)c1ccccc1", "% Inhibition": -4, "Z score": 0.93}, {"smiles": "Cc1ccccc1CNC(=O)c1nn[nH]c1Nc1ccccc1F", "% Inhibition": -1, "Z score": 0.18}, {"smiles": "Cc1nnc(NC(=O)c2nn(Cc3ccccc3)c(=O)c3ccccc23)o1", "% Inhibition": 8, "Z score": -1.09}, {"smiles": "CC(C)c1nn(-c2ccccc2)c(Oc2ccccc2F)c1CN(C[C@H](O)COCc1ccccc1)C1CC1", "% Inhibition": 0, "Z score": -0.06}, {"smiles": "O=C(NCc1ccc2[nH]cnc2c1)c1cc(C(F)F)n[nH]1", "% Inhibition": -9, "Z score": 1.8}, {"smiles": "Cc1cc(C(=O)Nc2cncc(F)c2)no1", "% Inhibition": -14, "Z score": 2.75}, {"smiles": "COc1ccc([C@@H]2CCCN2C(=O)c2cnc(C)cn2)cc1OC", "% Inhibition": 2, "Z score": -0.14}, {"smiles": "CC1(C)N(O)C(c2ccc[nH]2)N(O)C1(C)C", "% Inhibition": 6, "Z score": -0.82}, {"smiles": "COc1c(C(=O)N2CCN(C(C)(C)C)CC2)c(C)nn1C", "% Inhibition": 4, "Z score": -0.65}, {"smiles": "CCOc1nc(-c2ccccc2)c(S(=O)(=O)c2ccc(Cl)cc2)s1", "% Inhibition": 1, "Z score": -0.18}, {"smiles": "Cc1nscc1C(=O)Nc1cc(CS(C)(=O)=O)ccc1Cl", "% Inhibition": 9, "Z score": -1.22}, {"smiles": "CCOc1cccc2nnc(NC(=O)NCc3ccc(C)cc3)n12", "% Inhibition": -5, "Z score": 0.62}, {"smiles": "COc1ccc(/C=C/CN2CCN(CC(C)C)[C@@H]3CS(=O)(=O)C[C@@H]32)cc1", "% Inhibition": -11, "Z score": 1.11}, {"smiles": "CC(=O)c1ccc(N2C(=O)[C@H]3[C@@H](C2=O)[C@]2(C(=O)Nc4ccc(C)cc42)N2CCC[C@@H]32)cc1", "% Inhibition": -12, "Z score": 1.48}, {"smiles": "Cc1nc[nH]c1CN1CCC[C@H](CCNC(=O)NC2CCCC2)C1", "% Inhibition": -7, "Z score": 0.89}, {"smiles": "Fc1ccc([C@@H]2Cc3ccccc3N2)cc1", "% Inhibition": 2, "Z score": -0.26}, {"smiles": "Cc1noc(C)c1S(=O)(=O)N[C@@H](C)c1nc2c(s1)CCCC2", "% Inhibition": -6, "Z score": 1.11}, {"smiles": "Cc1ccc2oc([C@H]3CCN(Cc4cccc(Cl)c4)C3)nc2c1", "% Inhibition": 14, "Z score": -1.59}, {"smiles": "COCCn1ncc(N2CC[C@H](C(=O)N(C)Cc3ccc(N4CCN(C)CC4)cc3)C2)cc1=O", "% Inhibition": -10, "Z score": 1.9}, {"smiles": "O=C(NCc1ccccc1F)[C@@H]1CCCN1c1nnc(N2CCCC2=O)s1", "% Inhibition": 6, "Z score": -0.93}, {"smiles": "CC(C)N(CCc1nc(-c2ccccc2)no1)C(=O)Cc1ccc(F)cc1", "% Inhibition": -10, "Z score": 1.33}, {"smiles": "Cc1cc(S(=O)(=O)N2CCN(Cc3ncccc3Cl)CC2)c(C)s1", "% Inhibition": -11, "Z score": 1.35}, {"smiles": "CNc1nc(NC[C@H]2CCCN(C3CCCC3)C2)ncc1F", "% Inhibition": 10, "Z score": -1.73}, {"smiles": "O=C(NCc1cccnc1)N1CCN(c2nccs2)CC1", "% Inhibition": -2, "Z score": 0.22}, {"smiles": "CCOc1ccccc1-c1nc(CN2CCN(c3cccc(OC)c3)C(=O)C2)c(C)o1", "% Inhibition": -3, "Z score": 0.63}, {"smiles": "CN(CCc1c[nH]c2ccc(O)cc12)C[C@]1(c2ccc(F)cc2)CCOC1", "% Inhibition": -7, "Z score": 1.01}, {"smiles": "CCN1CCC(NC(=O)Nc2ccc(C)s2)CC1C", "note": "(stereo not drawn)", "% Inhibition": -6, "Z score": 0.76}, {"smiles": "CC(NC(=O)C1C2C=CC(C2)C1C(=O)O)c1nc(C(C)(C)C)cs1", "note": "(stereo not drawn)", "% Inhibition": -4, "Z score": 0.54}, {"smiles": "Cn1c(CNC(=O)NCc2cc(Cl)c(Cl)n2C)cc(Cl)c1Cl", "% Inhibition": 34, "Z score": -4.4}, {"smiles": "O=C(NCC(=O)N1CCC[C@]2(CC=CCC2)C1)c1ccc(C(F)(F)F)cc1", "% Inhibition": 3, "Z score": -0.33}, {"smiles": "N#Cc1ncn(CC(=O)c2c[nH]c3ccccc23)c1C#N", "% Inhibition": 2, "Z score": -0.36}, {"smiles": "Cc1cc(C[C@H](C)n2cnc3cccc(F)c3c2=O)[nH]n1", "% Inhibition": 12, "Z score": -1.63}, {"smiles": "C[C@@H](c1ncnn1-c1ccncc1)N1CCN(C)CC1", "% Inhibition": -17, "Z score": 3.35}, {"smiles": "CC[C@H](C)N(C)CCNC(=O)c1ccc(OC)c(OC(F)F)c1", "% Inhibition": -13, "Z score": 1.36}, {"smiles": "C[C@H](NCc1cncs1)c1ccc(Cl)cc1Cl", "% Inhibition": -12, "Z score": 1.77}, {"smiles": "C[C@@H](c1nc2ccccc2n1C(F)F)N1CCC(c2nnc[nH]2)CC1", "% Inhibition": 18, "Z score": -2.3}, {"smiles": "CCn1cnnc1CN1CC[C@@]2(CCCN(C3CCCCC3)C2=O)C1", "% Inhibition": 10, "Z score": -1.93}, {"smiles": "CC(C)NC(=O)[C@H](C)Oc1ccc(C(N)=O)cc1", "% Inhibition": -3, "Z score": 0.43}, {"smiles": "CO[C@H]1CN(C(=O)c2cccc3ccccc23)C[C@@H]1O", "% Inhibition": -11, "Z score": 1.55}, {"smiles": "O=C1CCCN1c1cccc(C(=O)N2CCC[C@H]2c2ccc3c(c2)OCCO3)c1", "% Inhibition": 5, "Z score": -0.85}, {"smiles": "CCOCCNC(=O)Cn1cccnc1=O", "% Inhibition": -2, "Z score": 0.21}, {"smiles": "Cc1cc(C)n2c(C(=O)NCc3cc(CC(C)C)no3)nnc2n1", "% Inhibition": -5, "Z score": 0.44}, {"smiles": "COCCOc1nc(-c2ccc(F)cc2)n(-c2cccc(NC(=O)Nc3ccc(OC)cc3)c2)n1", "% Inhibition": 2, "Z score": -0.19}, {"smiles": "Cc1ccccc1C(=O)NCCC(=O)N1CCCC1C1CCCN(Cc2ccccc2)C1", "note": "(stereo not drawn)", "% Inhibition": -7, "Z score": 0.66}, {"smiles": "CC1(C)CN(CCC2OCCO2)CCN1CCC1OCCO1", "% Inhibition": -1, "Z score": 0.11}, {"smiles": "CN(Cc1cnccn1)C(=O)[C@H](O)C1CCCCC1", "% Inhibition": -6, "Z score": 0.9}, {"smiles": "CN(Cc1ccccc1)c1nc2nonc2nc1N1CCC[C@H](CN2CCCC2=O)C1", "% Inhibition": -26, "Z score": 2.33}, {"smiles": "Cc1cccc2c(-c3nc(N)c4cnn(C)c4n3)c[nH]c12", "% Inhibition": 13, "Z score": -1.82}, {"smiles": "Cc1ccccc1C1=CCN(C(=O)c2cccnc2OCCO)C1", "% Inhibition": 2, "Z score": -0.22}, {"smiles": "COc1ccc(F)c(-c2cc(N)nc(N(C)C)n2)c1", "% Inhibition": -15, "Z score": 2.16}, {"smiles": "Cc1cccc(Cl)c1N1C(=O)[C@@H]2CS(=O)(=O)CCN2C1=O", "% Inhibition": 1, "Z score": -0.12}, {"smiles": "Cn1nncc1COc1cc(F)cc(F)c1", "% Inhibition": -14, "Z score": 1.59}, {"smiles": "CCOC(=O)c1ncn(Cc2ccc3c(c2)OCO3)c1N", "% Inhibition": -12, "Z score": 1.19}, {"smiles": "COc1cc2c(cc1NC(=O)NCCNc1nc(C)cc(=O)[nH]1)OCO2", "% Inhibition": -9, "Z score": 1.18}, {"smiles": "Cc1nc(NC(=O)N2CCN(c3cn[nH]c(=O)c3)CC2)nn1C(C)C", "% Inhibition": -8, "Z score": 1.53}, {"smiles": "CCOCCO/C(=N/C(=O)c1ccc(C)cc1)NCc1ccccc1", "% Inhibition": -16, "Z score": 2.05}, {"smiles": "COC(=O)c1nc(NC(=O)COc2cn(C)c(C)cc2=O)sc1-c1ccccc1Cl", "% Inhibition": -11, "Z score": 1.25}, {"smiles": "C[C@H]1[C@@H](NCc2cccc(Cl)c2F)CCS1(=O)=O", "% Inhibition": -2, "Z score": 0.41}, {"smiles": "CCN1CCN(C(=O)[C@]2(C)CCCCO2)CC1(C)C", "% Inhibition": -7, "Z score": 1.28}, {"smiles": "O=C(O)Cn1nc(-c2ccncc2)nc1-c1ccc(Cl)cc1F", "% Inhibition": 1, "Z score": -0.16}, {"smiles": "CC(=O)Nc1ccc(S(=O)(=O)NC(=O)c2n[nH]c(C)c2C)cc1", "% Inhibition": -17, "Z score": 2.56}, {"smiles": "CC(C)NC(=O)NC[C@H]1O[C@@H](Cc2nc(-c3ccc(F)cc3)no2)[C@H](O)[C@@H]1O", "% Inhibition": 31, "Z score": -3.47}, {"smiles": "CC(C)CN(CC(=O)N1CCc2sccc2[C@@H]1COc1ccc(F)cc1)C(=O)Nc1cccc(Cl)c1", "% Inhibition": -9, "Z score": 0.88}, {"smiles": "Cn1cc(CN2CCc3ccccc3C2)cn1", "% Inhibition": -3, "Z score": 0.23}, {"smiles": "CC(C)c1noc(-c2ccc(N(C)C[C@H](O)c3ccccc3)nc2)n1", "% Inhibition": -11, "Z score": 1.42}, {"smiles": "COC(=O)[C@@H]1C[C@H](O)CCN1C(=O)c1nn(C)c2ccc(C)cc12", "% Inhibition": -11, "Z score": 2.01}, {"smiles": "Cc1cnc(C(=O)NCc2nccnc2-c2ccncc2)cn1", "% Inhibition": 15, "Z score": -1.9}, {"smiles": "CCn1ncc(CN2CCN(C(=O)c3nn(C)cc3Cl)CC2)c1C", "% Inhibition": -10, "Z score": 1.34}, {"smiles": "CN(C)c1cncc(O[C@H]2CCN(C(=O)c3noc4c3CCCC4)C2)n1", "% Inhibition": -10, "Z score": 1.55}, {"smiles": "O=C1NC2(CCCC2)C(=O)N1Cc1cc(Cl)c2c(c1)OCO2", "% Inhibition": -6, "Z score": 0.56}, {"smiles": "COc1cc(NC(=O)C2CCN(S(=O)(=O)c3cc4c(cc3C)NC(=O)CO4)CC2)cc(OC)c1", "% Inhibition": 9, "Z score": -1.06}, {"smiles": "Cc1nn(C)c2c(N3CCC[C@H](C(=O)NCc4cccnc4)C3)nccc12", "% Inhibition": -13, "Z score": 2.16}, {"smiles": "Cc1cc(CS(=O)(=O)CC(=O)NC2CCCCCC2)no1", "% Inhibition": -18, "Z score": 2.31}, {"smiles": "O=C(c1c[nH]c(=O)c(C(F)(F)F)c1)N1CCCC[C@H]1c1ccco1", "% Inhibition": 0, "Z score": -0.05}, {"smiles": "COc1ccc(-n2ncc3c2CC(C)(C)C[C@@H]3NC(=O)CCN2CCCC2=O)cc1", "% Inhibition": 4, "Z score": -0.36}, {"smiles": "CC(=O)N[C@@H](CC(=O)N1CCCCCCC1)c1c(F)cccc1F", "% Inhibition": 6, "Z score": -1}, {"smiles": "CC(C)c1ccc(C#N)c(-c2ccc(N(C)C)nc2)n1", "% Inhibition": -6, "Z score": 0.96}, {"smiles": "CCC[C@H](C)c1cn(CCn2cccn2)nn1", "% Inhibition": -13, "Z score": 2.46}, {"smiles": "O=C(Cc1cnc2ncnn2c1)N[C@H]1CCCN(C2CCCCCC2)C1", "% Inhibition": -26, "Z score": 2.36}, {"smiles": "CC(NS(=O)(=O)CCC1CCOC1)C1CC2CCC1C2", "note": "(stereo not drawn)", "% Inhibition": -6, "Z score": 0.91}, {"smiles": "CN(C(=O)[C@H]1C[C@@H]1C1CC1)c1nncs1", "% Inhibition": 11, "Z score": -1.09}, {"smiles": "Cc1sc(C2(NCc3cnn(C(C)(C)C)c3)CCC2)nc1-c1ccccc1F", "% Inhibition": -5, "Z score": 0.69}, {"smiles": "CNc1cccc(-c2ccncc2C2CC2)c1", "% Inhibition": -3, "Z score": 0.37}, {"smiles": "Cc1ccc(C(=O)N2CCCC[C@H]2c2cncn2C)c(F)c1", "% Inhibition": -9, "Z score": 1.18}]}]}
